# Source: PubChem BioAssay AID1745845 (National Center for Advancing Translational Sciences (NCATS), 2022)
# Values joined by “and” are separate entries in the source; they are usually repeats but may differ in a detail not shown here. Identical values can stand only once. About 2,600 (0.72%) of roughly 360,000 compounds were called active. Inconclusive means that the source gave no clear call. Such entries were picked first, then a sample of the others. Calls come from the whole dose curve; as a rule, active = well fitted inhibition curve with a large enough effect; inconclusive = small, poorly fitted or top-dose-only effect; inactive = no such curve, though single readings can be large or run the other way. Where the call is inconclusive, the potency comes from a doubtful curve fit.
# Assay: Primary qHTS for Inhibitors of ATXN expression; note: nearly all actives have a fitted effect of over 55% in size
# Conditions: HEK-293 ATXN2-luciferase reporter, luminescence, 24 h; series mostly up to 57 µM
# In short: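 qHTS (up to 57 uM final) was run with 24 h compound exposure of reporter cells at 37 °C. Each well was multiplexed: SteadyGlo luminescence measured ATXN2-luciferase expression after a fluorogenic Gly-Phe-AFC viability readout (25 uM final).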
# Potency is the fitted concentration of half-maximal effect; tags give direction and shape of the fitted curve.
row,SMILES,Potency
1,Cc1ccc(OCC(=O)c2cc(C)n(-c3ccccc3)c2C)c([N+](=O)[O-])n1,active: 3.16 µM
2,Cc1ccc(O)c(NC(=O)c2ccc(Br)c(S(=O)(=O)N3CCCCC3)c2)c1,"inconclusive: 39.8 µM [inhibitor, single point]"
3,COc1cccc(C(=O)N2CCN(C3CCC(c4ccccc4)CC3)CC2)c1OC (configuration not stated),"inconclusive: 22.4 µM [inhibitor, single point]"
4,Cc1nc2ncnn2c(C)c1CCC(=O)N1CCN(c2ccccc2)CC1,inactive
5,Cc1[nH]c2ccc(F)cc2c1CCN(Cc1cccnc1)C(=S)Nc1cccc(F)c1,"inconclusive: 28.2 µM [inhibitor, single point]"
6,COc1ccc(CCNC(=O)CCCCn2c(=O)c3ccccc3n(Cc3ccccc3C)c2=O)cc1OC,"inconclusive: 39.8 µM [inhibitor, single point]"
7,CC(C)C(c1nnnn1Cc1ccco1)N1CCN(c2nc3ccccc3s2)CC1 (configuration not stated),"inconclusive: 39.8 µM [inhibitor, single point]"
8,CC(=O)Nc1ccc(NC(=O)c2ccc(-n3c(C)ccc3C)cc2)cc1,inactive
9,Nc1c(Cl)cc(C2=NCCn3nc4cc(C(F)(F)F)ccc4c32)cc1Cl,"inconclusive: 31.6 µM [inhibitor, single point]"
10,C#CC(=O)N(c1cccc(OC)c1)C(C(=O)NC1CCCC1)c1cccs1 (configuration not stated),active: 1.58 µM
11,N#CC(C#N)=C(N)/C(C#N)=C/c1cc(O)c(O)c(O)c1,inactive
12,O=C(O)c1cc(OCc2ccccc2)cc(OCc2ccccc2)c1,"inconclusive: 14.1 µM [inhibitor, partial curve, poor fit]"
13,COc1cccc(Cn2nnc(C(=O)Nc3cc(Cl)ccc3OC)c2N)c1,"inconclusive: 2.51 µM [inhibitor, partial curve, poor fit]"
14,CCOc1cc(/C=N/Nc2cc(C)nc(-n3nc(C)cc3C)n2)ccc1O,active: 1.26 µM
15,CCOc1ccc(Cl)cc1S(=O)(=O)N1CCN(c2ccc(F)cc2)CC1,"inconclusive: 31.6 µM [inhibitor, partial curve, poor fit]"
16,O=C(CCC1N=C2c3ccccc3N=C(SCc3ccc(Cl)cc3)N2C1=O)NCCc1ccccc1 (configuration not stated),"inconclusive: 31.6 µM [inhibitor, single point]"
17,COc1cc2c(cc1OC)C(Cc1ccc(O)cc1)N(C)CC2 (configuration not stated),inactive
18,c1cc2c(cc1C1CCCCC1)c1c3n2CCCNC3CCC1 (configuration not stated),active: 28.2 µM
19,Cc1cc(C)nc(Sc2ncnc(N)c2[N+](=O)[O-])n1,"inconclusive: 37.7 µM [inhibitor, single point]"
20,COc1cc(OC)c(C(=O)C=Cc2ccc(OC)c(OC)c2)c(OC)c1,"inconclusive: 39.8 µM [inhibitor, single point]"
21,FC(F)(F)c1cc(CO[C@@H]2CCCN[C@@H]2c2ccccc2)cc(C(F)(F)F)c1,"inconclusive: 31.6 µM [inhibitor, single point]"
22,CC(C)(C)OC(=O)NCc1ccc(CNC(=O)c2nc[nH]c2C(=O)N2CCN(C(=O)OC(C)(C)C)CC2)cc1,"inconclusive: 22.4 µM [inhibitor, single point]"
23,O=C(CCCCn1c(=O)c2ccccc2n(Cc2ccc(F)cc2)c1=O)NCc1ccco1,inactive

row,SMILES,Potency
1,COc1cc(/C=C2/C(=O)ON=C2C)ccc1OCc1ccccc1F,"inconclusive: 39.8 µM [inhibitor, single point]"
2,Cc1cc(NC(=O)c2cccs2)ncc1NC(=O)C(C)(C)C,"inconclusive: 20 µM [inhibitor, single point]"
3,COc1ccc(C2c3c(ncn(CCN4CCOCC4)c3=N)Oc3ccc4ccccc4c32)cc1OC (configuration not stated),"inconclusive: 31.6 µM [inhibitor, single point]"
4,OC[C@H]1O[C@H](c2nc(-c3nc(-c4cccc(-n5cccc5)c4)no3)cs2)C[C@@H]1O,"inconclusive: 39.8 µM [inhibitor, single point]"
5,COC(=O)/C=C/c1ccsc1NC(C)=O,inactive
6,CC(=O)Nc1ccc(NC(=O)c2nc(S(=O)(=O)Cc3cccc(C)c3)ncc2Cl)cc1,"inconclusive: 39.8 µM [inhibitor, single point]"
7,Oc1cc(OCc2ccccc2)ccc1-c1[nH]ncc1-c1ccccc1,"inconclusive: 39.8 µM [inhibitor, single point]"
8,O=C(Nc1nc2ccccc2[nH]1)c1ccccc1,"inconclusive: 17.8 µM [inhibitor, single point]"
9,Cc1ccc(-c2nnc(N3CCN(C(=O)COc4ccccc4)CC3)c3ccccc23)cc1,"inconclusive: 25.1 µM [inhibitor, single point]"
10,CSC1=NC(=O)/C(=C/c2ccc(SC)cc2)S1,"inconclusive: 33.6 µM [inhibitor, single point]"
11,COc1cc(F)ccc1-c1csc(C(O)(c2ccccc2)C(F)(F)F)n1 (configuration not stated),"inconclusive: 39.8 µM [inhibitor, single point]"
12,O=[N+]([O-])c1c(NCCO)cc(Sc2nc3ccccc3s2)c2nonc12,active: 14.1 µM
13,Cc1ccc(C)c(CN2CCC(CNC(=O)Nc3ccc(Br)cc3F)CC2)c1,"active: 20 µM and inconclusive: 39.8 µM [inhibitor, single point]"
14,c1ccc(-c2noc(-c3ccc4c(c3)OCO4)n2)nc1,"inconclusive: 2.82 µM [inhibitor, full curve, poor fit]"
15,CCN(CC)c1ccc(/C=N/NC(=O)CCC(=O)NCc2ccccc2)c(O)c1,active: 3.55 µM
16,CN(c1ccccc1)c1ccc(/C=N/NC(=O)CC#N)cc1,active: 12.6 µM
17,CC(C)(C)OC(=O)NCCCCCNC(=O)c1[nH]cnc1C(=O)Nc1ccc(Cl)cc1,"inconclusive: 28.2 µM [inhibitor, single point]"
18,CCS(=O)(=O)c1ncc(Cl)c(C(=O)Nc2ccc(C)cc2)n1,"inconclusive: 39.8 µM [inhibitor, single point]"
19,COc1cccc(/C=N/Nc2ncnc3c2ncn3Cc2ccccc2)c1O,"inconclusive: 3.16 µM [inhibitor, full curve]"
20,CON(c1nc(Cl)nc(N(C)C)n1)S(=O)(=O)c1ccc(C)cc1,"inconclusive: 35.5 µM [inhibitor, single point]"
21,O=[N+]([O-])c1ccc(NN=Cc2cc(Br)ccc2O)nc1,"inconclusive: 39.8 µM [inhibitor, single point]"
22,CC(C)(C)n1ncc2c(=O)n(CC(=O)NCc3ccccc3)cnc21,"inconclusive: 39.8 µM [inhibitor, single point]"
23,CC1CCc2c(sc3nc(C4CC4)nc(N4CCN(C(=O)c5ccco5)CC4)c23)C1 (configuration not stated),"inconclusive: 35.5 µM [inhibitor, single point]"

row,SMILES,Potency
1,C=CCc1cccc(C=NNC(=O)CN2CCN(Cc3ccccc3)CC2)c1O,active: 19.3 µM
2,CC1CN(CC(=O)Nc2cccc(C(=O)Nc3cccc(C(F)(F)F)c3)c2)CC(C)O1 (configuration not stated),inactive
3,CCc1ccc(NC(=O)C2=CC(c3ccc(OC)cc3)=NS(=O)(=O)N2C)cc1,"inconclusive: 15.8 µM [inhibitor, partial curve, poor fit]"
4,Cc1ccc(S(=O)(=O)Nc2ccc3c(c2)CC(=O)N([C@H](C)CO)C[C@@H](C)[C@H](CN(C)Cc2ccc(-c4ccccc4)cc2)O3)cc1,"inconclusive: 39.8 µM [inhibitor, single point]"
5,Cc1ccc(-n2c(=O)c3c4c(sc3n(Cc3cccc(Cl)c3)c2=O)CCC4)cc1C,inactive
6,Cc1nc2nncn2c(NCc2ccc(Cl)cc2)c1C,"inconclusive: 15.8 µM [inhibitor, partial curve, poor fit]"
7,Cc1ccc(-c2cn3nc(C)c(C)nc3n2)cc1,active: 6.31 µM
8,CC(C)NC(=O)N(C)C[C@H]1Oc2ccc(NC(=O)c3ccncc3)cc2C(=O)N([C@H](C)CO)C[C@@H]1C,inactive
9,Cc1nn(C)c(=S)[nH]c1=S,inactive
10,Cn1c(S(=O)(=O)c2ccc([N+](=O)[O-])cc2)nc(Br)c1Br,"inconclusive: 39.8 µM [inhibitor, single point]"
11,O=C(COC(=O)c1cccs1)Nc1nc(-c2ccccc2)cs1,inactive
12,CCOc1cc(/C=C2\COc3ccccc3C2=O)cc(Br)c1OCC(=O)N(C)C,active: 22.4 µM
13,C[C@H](CO)N1C[C@H](C)[C@@H](CN(C)S(=O)(=O)c2cccs2)Oc2ccc(NC(=O)Nc3ccc(C(F)(F)F)cc3)cc2C1=O,"inconclusive: 28.2 µM [inhibitor, single point]"
14,CCOC(=O)C1C(=O)CC(O)(c2ccccc2)CC1c1ccccc1 (configuration not stated),inactive
15,COc1ccccc1CNC(=O)NCc1noc2ccc(C)cc12,inactive
16,COc1cc(OC)cc(C(=O)Oc2c(CN3CCOCC3)cc(Cl)c3cccnc23)c1,inactive
17,O=C(N/C(=C\c1cccc(Br)c1)C(=O)N1CCOCC1)c1ccco1,"inconclusive: 0.267 µM [inhibitor, full curve, poor fit]"
18,Cc1nc(Nc2ccc(Cl)cc2)cc(-c2ccccc2)n1,"inconclusive: 39.8 µM [inhibitor, single point]"
19,Fc1ccc(C2c3cccn3CCN2C(=S)Nc2cccc(Br)c2)cc1 (configuration not stated),"inconclusive: 37.7 µM [inhibitor, single point]"
20,CCN1C(=O)/C(=C/N(C(C)=O)c2ccccc2)N(c2ccccc2)C1=S,"inconclusive: 31.6 µM [inhibitor, single point]"
21,COc1ccc(C2CC(=O)N(Cc3ccc(F)cc3)c3ccccc3S2)cc1 (configuration not stated),"inconclusive: 25.1 µM [inhibitor, single point]"
